Laboratory results taken from the supplement of paper PMC11876631.
± gives the standard deviation of the averaged measurements. Laboratory Escherichia coli strains with one amino-acid change in an essential protein, pooled on minimal glucose agar with carbenicillin or gentamicin at twice the control MIC (plus kanamycin and chloramphenicol for the plasmids), 48 h. Fold change of barcode share against drug-free plates; higher = less susceptible. Active = above 20 in both replicates (the paper's putatively resistant). '<' = one read or none on drug, '>' = one read or none on a drug-free plate. Shares are relative, so most strains fall below 1 when a few take over. Listed are strains with at least 15 reads on both drug-free plates, and hits; most hits rest on fewer reference reads. Replicate rank correlation about 0.5. Edits are read from barcodes.

B1: cca; numbered along this chain (parent)
chain: MKIYLVGGAVRDALLGLPVKDRDWVVVGSTPQEMLDAGYQQVGRDFPVFLHPQTHEEYALARTERKSGSGYTGFTCYAAPDVTLEDDLKRRDLTINALAQDDNGEIIDPYNGLGDLQNRLLRHVSPAFGEDPLRVLRVARFAARYAHLGFRIADETLALMREMTHAGELEHLTPERVWKETESALTTRNPQVFFQVLRDCGALRVLFPEIDALFGVPAPAKWHPEIDTGIHTLMTLSMAAMLSPQVDVRFATLCHDLGKGLTPPELWPRHHGHGPAGVKLVEQLCQRLRVPNEIRDLARLVAEFHDLIHTFPMLNPKTIVKLFDSIDAWRKPQRVEQLALTSEADVRGRTGFESADYPQGRWLREAWEVAQSVPTKAVVEAGFKGVEIREELTRRRIAAVASWKEQRCPKPE

Variants of: B1
Experiment: barcode share on antibiotic plates over drug-free plates; higher = less susceptible
Details: with Escherichia coli (laboratory strain)
Description: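 A pool of E. coli strains, each edited to carry one amino-acid change in an essential protein, was grown for 48 h on minimal glucose agar with or without antibiotic; strain barcodes were sequenced; mean of two replicates.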

[1] = antibiotic: carbenicillin, 2× MIC (3.1 µg/mL)
[2] = antibiotic: gentamicin, 2× MIC (MIC 0.45 µg/mL)

Row | Variant | fold change of barcode share [1] | fold change of barcode share [2]
1 | MKIYLVGGAVRDALLGLPVKDRDWVVVGSTPQEMLDAGYQQVGRDFPVFLHPQTHEEYALARTERKSGSGYTGFTCYAAPDVTLEDDLKRRDLTINALAQDDNGEIIDPYNGLGDLQNRLLRHVSPAFGEDPLRVLRVARFAARYAHLGFRIADETLALMREMTHAGELEHLTPERVWKETESALTTRNPQVFFQVLRDCGALRVLFPEIDALFGVPAPAKWHPEIDTGIHTLQTLSMAAMLSPQVDVRFATLCHDLGKGLTPPELWPRHHGHGPAGVKLVEQLCQRLRVPNEIRDLARLVAEFHDLIHTFPMLNPKTIVKLFDSIDAWRKPQRVEQLALTSEADVRGRTGFESADYPQGRWLREAWEVAQSVPTKAVVEAGFKGVEIREELTRRRIAAVASWKEQRCPKPE [M234Q] | 0.446 ± 0.25 | 0.00733 ± 0.0054
2 | MKIYLVGGAVRDALLGLPVKDRDWVVVGSTPQEMLDAGYQQVGRDFPVFLHPQTHEEYALARTERKSGSGYTGFTCYAAPDVTLEDDLKRRDLTINALAQDDNGEIIDPYNGLGDLQNRLLRHVSPAFGEDPLRVLRVARFAARYAHLGFRIADETLALMREMTHAGELEHLTPERVWKETESALTTRNPQVFFQVLRDCGALRVLFPEIDALFGVPAPAKWHPEIDTGIHTLATLSMAAMLSPQVDVRFATLCHDLGKGLTPPELWPRHHGHGPAGVKLVEQLCQRLRVPNEIRDLARLVAEFHDLIHTFPMLNPKTIVKLFDSIDAWRKPQRVEQLALTSEADVRGRTGFESADYPQGRWLREAWEVAQSVPTKAVVEAGFKGVEIREELTRRRIAAVASWKEQRCPKPE [M234A] | 0.341 ± 0.07 | < 0.00661
3 | MKIYLVGGAVRDALLGLPVKDRDWVVVGSTPQEMLDAGYQQVGRDFPVFLHPQTHEEYALARTERKSGSGYTGFTCYAAPDVTLEDDLKRRDLTINALAQDDNGEIIDPYNGLGDLQNRLLRHVSPAFGEDPLRVLRVARFAARYAHLGFRIADETLALMREMTHAGELEHLTPERVWKETESALTTRNPQVFFQVLRDCGALRVLFPEIDALFGVPAPAKWHPEIDTGIHTLPTLSMAAMLSPQVDVRFATLCHDLGKGLTPPELWPRHHGHGPAGVKLVEQLCQRLRVPNEIRDLARLVAEFHDLIHTFPMLNPKTIVKLFDSIDAWRKPQRVEQLALTSEADVRGRTGFESADYPQGRWLREAWEVAQSVPTKAVVEAGFKGVEIREELTRRRIAAVASWKEQRCPKPE [M234P] | 0.302 ± 0.11 | < 0.00568
4 | MKIYLVGGAVRDALLGLPVKDRDWVVVGSTPQEMLDAGYQQVGRDFPVFLHPQTHEEYALARTERKSGSGYTGFTCYAAPDVTLEDDLKRRDLTINALAQDDNGEIIDPYNGLGDLQNRLLRHVSPAFGEDPLRVLRVARFAARYAHLGFRIADETLALMREMTHAGELEHLTPERVWKETESALTTRNPQVFFQVLRDCGALRVLFPEIDALFGVPAPAKWHPEIDTGIHTLDTLSMAAMLSPQVDVRFATLCHDLGKGLTPPELWPRHHGHGPAGVKLVEQLCQRLRVPNEIRDLARLVAEFHDLIHTFPMLNPKTIVKLFDSIDAWRKPQRVEQLALTSEADVRGRTGFESADYPQGRWLREAWEVAQSVPTKAVVEAGFKGVEIREELTRRRIAAVASWKEQRCPKPE [M234D] | 0.273 ± 0.049 | < 0.00463
